Reference: PubChem BioAssay AID2010 (Broad Institute, 2009)
The full ranking holds about 4,100 compounds; the median of “activity change, negative = cytotoxicity” is about -43, and the highest 2% start at about 39. This is one part of the list. Measured potencies and affinities stand elsewhere. Entries without a call are filed as inconclusive in the source.

test: cytotoxicity toward NIH3T3 fibroblasts, dose response, counter-screen, cell-based, ATP luminescence, mouse fibroblasts (AID 2010); conditions: NIH3T3 viability, ATP luminescence (CellTiter-Glo), 90 h; at 6 µM (top of the series)

SMILES | activity change, negative = cytotoxicity [%]
O=[N+]([O-])c1cccc(-c2ccc(/C=N/NC(=S)Nc3ccccc3)o2)c1 | 31
Clc1ccc(/C=C/c2nc3ccccc3[nH]2)c(Cl)c1 | -44.6
CCN(CC)CCn1c(=N)n(CCOc2ccccc2)c2ccccc21 | -32.6
COc1ccc(/C=C2\SC(=N)N(c3nccs3)C2=O)cc1OC | -50.3
Fc1ccc(COc2ccccc2CNCc2ccncc2)cc1 | 39.3
Cc1c(C(=O)OCC(C)C)[nH]c2c1C(=O)CC(c1cccs1)C2 (configuration not stated) | -66.1
CC1CCN(CCCNC(=O)c2cc3c(Cl)nc4ccccc4c3s2)CC1 | -50.2
Cc1ccc(Nc2nc(N/N=C\c3ccc4c(c3)OCO4)nc(N3CCOCC3)n2)cc1 | -57.2
COc1ccc(N=C2S/C(=C\c3ccc(N4CCOCC4)o3)C(=O)N2CCc2c[nH]c3ccccc23)cc1 | -40.4
O=c1c2ccccc2sn1-c1ccccc1 | -34
COc1cc(C(=O)Oc2ccccc2/C=N/NC(=O)c2ccc(Cl)cc2)cc(OC)c1OC | -34.8
C/C(CC(C)(C)C1CCCCC1)=N\NC(N)=S | -46.1
Oc1c(N=NC(=S)Nc2ccccc2F)c2ccccc2n1Cc1ccccc1F | -63.2
CCC1=Nc2cc(C(=O)NCCCOC)ccc2Sc2ccccc21 | -58.4
O=C(CSc1cccc2cccnc12)N/N=C/c1cccnc1 | -41.9
CCN(CC)CCn1nc2c3c(cccc3c1=O)-c1ccccc1-2 | -42.1
Cc1cc(C(=O)Nc2nc(-c3ccccn3)cs2)ccc1[N+](=O)[O-] | -67.5
Cc1cc(C)c2c(N)c3cccc(C)c3nc2n1 | -55.6
O=C(COC(=O)c1ccccc1C(=O)c1ccc(Cl)c([N+](=O)[O-])c1)NC1CC1 | -40

SMILES | activity change, negative = cytotoxicity [%]
CC(=O)O[C@@]12CO[C@@H]1C[C@H](O)[C@@]1(C)C(=O)[C@H](O)C3=C(C)[C@@H](OC(=O)[C@H](O)[C@@H](NC(=O)OC(C)(C)C)c4ccccc4)C[C@](O)([C@@H](OC(=O)c4ccccc4)[C@H]21)C3(C)C | -50.6
CCc1ccccc1OCC(=O)Nc1nc(-c2cccnc2)cs1 | -60.5
COC(=O)C1=CN(Cc2ccc(OC)c(OC)c2)C=C(C(=O)OC)C1c1cccs1 | -30.9
CCCCN(CCCC)S(=O)(=O)c1ccc(NC(=O)c2ccc([N+](=O)[O-])cc2Cl)cc1 | -36.5
COc1ccccc1NS(=O)(=O)c1cc(NC(=O)Nc2ccc(Cl)cc2Cl)ccc1N1CCCCC1 | -37.5
O=C(/C(=C/c1cccc(Cl)c1)c1nc2ccccc2[nH]1)c1ccccc1 | -34.3
O=C(c1cc2nc(-c3ccc(F)cc3)cc(C(F)(F)F)n2n1)N1CCCCC1c1cccnc1 (configuration not stated) | -30.1
CC(=O)O[C@H]1C(=O)[C@@]2(C)C([C@H](OC(=O)c3ccccc3)[C@]3(O)C[C@H](OC(=O)[C@H](O)[C@@H](NC(=O)c4ccccc4)c4ccccc4)C(C)=C1C3(C)C)[C@]1(OC(C)=O)CO[C@@H]1C[C@H]2O (some centres not stated) | -50
O=C(CCC(=O)Nc1ccc(Cl)cc1Cl)N/N=C/c1ccc([N+](=O)[O-])o1 | -52.7
COc1cc(C(=O)NNC(=S)NC(=O)c2ccc(Cl)cc2)cc(OC)c1OC | -67.5
O=[N+]([O-])c1ccc(/C=N/NC(=S)Nc2ccc(Cl)cc2Cl)s1 | -43.5
Oc1c(C(Nc2ccccn2)c2cccnc2)cc(Cl)c2cccnc12 (configuration not stated) | -42.7
Cc1ccc(NC(=S)/N=C(\N)Nc2nc(C)c3cc(C)c(C)cc3n2)cc1C | 35.5
C/C(=N\NC(=O)c1ccc(Cl)cc1)c1ccc(Br)s1 | -40.2
Cc1cnc(C(=O)Nc2cccc3cccnc23)cn1 | -39.5
NC(=S)N/N=C/c1ccccc1OCc1cccc(Cl)c1 | -56.4
CC(C)CC(=O)O/N=C1\C(=O)N(Cc2ccc(Cl)cc2)c2ccc([N+](=O)[O-])cc21 | -43.4
Cc1cc(N/N=C/c2ccc(O)c(C)c2O)nc(-c2ccccc2O)n1 | -65.2
